In all, about 33,000 sequences were measured (“E-score (-0.5 to 0.5)”: median about -0.056, highest 2% from about 0.38 on). This is one part of the list.
Target: Stb4 (UniProt P50104)
Experiment: PBM E-score (8-mer binding enrichment) (E-score (-0.5 to 0.5)); higher = stronger / more preferred TF binding; most listed sequences are background and not binding sites
Details: protein concentration: 200 nM; construct: GST-DNA-binding domain
Method in brief: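 Universal all-10-mer Agilent arrays, double-stranded by primer extension on fresh or once-stripped slides, were probed with about 100-200 nM GST-tagged yeast transcription factors made by PURExpress. Fluorescent anti-GST detected bound protein, and masliner normalised the scans. E-scores from the Universal PBM Analysis Suite were given to each ungapped eight-base word pooled with its reverse complement.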

| Sequence | PBM E-score |
| --- | --- |
| GGGTCATA | -0.0394 |
| GTGGTCGA | -0.288 |
| GGCGGCTA | 0.158 |
| CCTCGCCA | -0.181 |
| AGATCCTA | -0.309 |
| AGACGCAC | -0.141 |
| CCACGTGG | -0.375 |
| ACCCACGC | -0.0243 |
| CACCTTGA | -0.0666 |
| TTCGAGAA | -0.207 |
| CAGCCAAA | -0.0614 |
| CGCTTTCC | 0.202 |
| AAGTGGTG | 0.0815 |
| CCGAGTCG | 0.382 |
| TAACGGCA | 0.042 |
| AACCTGCG | 0.093 |
| ACACTCAC | 0.0622 |
| ACTCTTAA | -0.213 |
| ACTCATGC | -0.0572 |
| GAATAAAA | -0.00836 |
| AGTCACCC | 0.0169 |
| CGTCGGTA | 0.294 |
| AAACATGG | -0.155 |
| ATGCACAA | -0.189 |
| AGGGCAGC | -0.122 |

| Sequence | PBM E-score |
| --- | --- |
| ATATGATG | -0.0789 |
| GTTGTAAA | -0.0454 |
| TCCTAAGA | -0.163 |
| GCTTGATA | -0.236 |
| ACCAGCGC | -0.24 |
| ACGTGTAG | -0.0556 |
| ACCACGTG | -0.181 |
| GCATCCCC | 0.123 |
| GCATACAA | -0.0336 |
| AACGGGAA | 0.305 |
| ACGGCGAG | -0.124 |
| GGACTCTA | -0.24 |
| ATATCGGG | 0.306 |
| AATGAAGT | -0.234 |
| TCAAATGA | 0.06 |
| ACGCGCGG | 0.2 |
| ACAATCGA | -0.154 |
| TATACTGA | -0.035 |
| ACAAAGTG | -0.137 |
| CTCATAGA | -0.111 |
| CGTTTGCC | 0.116 |
| AGATAATG | 0.0327 |
| ATGAGGAC | -0.0777 |
| GCCATCGC | -0.288 |
| ATTATTAA | 0.0806 |

| Sequence | PBM E-score |
| --- | --- |
| CACGCCGG | 0.215 |
| TGAAAAAA | 0.147 |
| TGTGATAA | -0.145 |
| AAGTGCAA | -0.154 |
| CACATGGA | -0.239 |
| TGATTCAA | -0.0277 |
| CAACCGGG | 0.263 |
| TCGCCCAA | -0.207 |
| ATGAATAC | 0.00705 |
| AGAAGTCC | -0.0141 |
| CCGGCCGG | 0.38 |
| CTGAACGC | -0.041 |
| CAATACGC | -0.0742 |
| AGGTGAGG | -0.192 |
| GCCCTGCC | 0.0895 |
| CCCGGCAA | 0.31 |
| GCATCACC | -0.0121 |
| TTCCTAAA | -0.159 |
| GGTGACAA | -0.0842 |
| ATTAAGTC | -0.0488 |
| CATAATCG | 0.153 |
| CTACCGCA | -0.0588 |
| AAGAGGTG | -0.0351 |
| ACTCTAAA | -0.0867 |
| CTGAAGTC | 0.0307 |

| Sequence | PBM E-score |
| --- | --- |
| GCTTGCCA | -0.126 |
| AGCGCGCT | -0.199 |
| TCGGCGAA | 0.312 |
| ACTACTAG | 0.0369 |
| AGGTATTA | -0.0306 |
| AGGCTTAA | -0.0797 |
| AAATGAAA | 0.114 |
| CGTCGGAA | 0.452 |
| CGACTCGA | 0.0278 |
| ATCTCCGC | 0.151 |
| GGTATGTA | 0.0188 |
| CAAGAACA | -0.148 |
| ACCCATCT | -0.027 |
| CCACTTGC | -0.223 |
| CGCAAAGC | 0.104 |
| ACGAGGGA | -0.0722 |
| CTCCGAAA | 0.357 |
| GAGATGGA | -0.0422 |
| CTCAGGAA | -0.196 |
| GATTAGGA | 0.0212 |
| CTGAGACA | -0.266 |
| TTAAGCAA | -0.0753 |
| AGTTTAAG | -0.218 |
| ATCCAGTG | -0.0566 |
| CCGCGTTA | 0.173 |

| Sequence | PBM E-score |
| --- | --- |
| GCCGGACA | 0.154 |
| ACGTCGGG | 0.349 |
| GCGCTCGA | -0.176 |
| TAATTCTA | -0.0127 |
| CTCCTGGA | -0.388 |
| AGCCCATA | -0.14 |
| GACTGTGA | -0.0634 |
| CTAGATGC | -0.163 |
| AGGATTCC | 0.0488 |
| AGCTCTTA | -0.136 |
| GGCCGCCA | -0.255 |
| CCATCTCC | 0.162 |
| AGGAACCT | -0.0592 |
| ACTCGCTC | -0.114 |
| ATAGGCAA | -0.199 |
| ATGTTATA | 0.00304 |
| GAATTACA | 0.0557 |
| GCGGGAAA | 0.306 |
| ATGTCGGA | 0.389 |
| AGATCGAA | -0.0342 |
| GGCTGAAA | -0.0623 |
| CTCTCGCC | -0.112 |
| AGTGGCCG | 0.102 |
| CGTGACCC | 0.128 |
| GTTTCTTA | -0.172 |

| Sequence | PBM E-score |
| --- | --- |
| CCCATCGC | -0.0498 |
| AGATAGTC | -0.0955 |
| AAAAGGTT | -0.106 |
| ATTCATCC | 0.202 |
| CAGTGATC | -0.082 |
| CCATAATA | -0.0506 |
| CCCTGAGG | -0.304 |
| TCTAGAGA | -0.256 |
| CGTATTAG | 0.00072 |
| GAGAAACA | -0.138 |
| CGGAGGGA | 0.205 |
| ATCCCTAA | -0.183 |
| CGGCCAAC | 0.114 |
| GCAGCGGC | 0.0994 |
| AAAGCCGC | 0.12 |
| GAGTGTGA | -0.127 |
| CACACGTA | -0.375 |
| CCGTTGCG | 0.0426 |
| ACGGTTAT | 0.206 |
| CAATGAGA | -0.238 |
| ACCGTCCT | -0.13 |
| CCTTGGAG | -0.196 |
| AACGATTG | -0.109 |
| AAATTGGA | -0.152 |
| ACCAGGTA | -0.108 |

| Sequence | PBM E-score |
| --- | --- |
| AGGTAGTG | 0.017 |
| AATAATAA | -0.109 |
| TCACGCCA | -0.0816 |
| GTCCAAGA | -0.118 |
| AAGTACCA | 0.0732 |
| AGACTCCA | -0.249 |
| TAGTTGAA | 0.0129 |
| TATAGGCA | -0.243 |
| AATTAAAT | -0.0575 |
| CAGCCGAG | 0.409 |
| CCATTTCC | 0.186 |
| GCGTTTTA | -0.0316 |
| CACGATAC | -0.0122 |
| CATTGGGC | -0.126 |
| GACTTCAC | -0.0153 |
| ATCCTTCA | -0.0298 |
| GCGAGCGC | -0.103 |
| GCACTCAC | -0.0367 |
| GGCTTAAA | 0.104 |
| TGAAGCCA | -0.175 |
| AAGCTGGT | -0.165 |
| CCACGTTC | -0.00115 |

— the supplement of paper PMC3334620
